Measured values reported in the supplement of paper PMC10126150.
Values marked as one replicate rest on one cluster of the flow cell; about a third of the high ones do not repeat.

Test system: ATP
Test: switch fluorescence ratio, 500 uM ATP over buffer (Cy3 cluster intensity, sum of 5 cycles each) (fold (ratio)); higher = stronger signal-on switching upon ATP binding; sequences stand for … in TCGTCGGCAGCGTCAGATGTGTATAAGAGACAGTTTTTTTTTTTTTTTTTTTTTTTTT…TC
Conditions: aptamer strand: ATP DNA aptamer (quencher-CACCTGGGGGAGTATTGCGGAGGAAGG + anchor), 100 nM annealed; ATP concentration: 500 uM; one replicate
Summary of the method: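 Cy3-labelled switching-strand clusters on a modified Illumina MiSeq flow-cell were annealed to 100 nM quencher-labelled ATP aptamer and imaged first in selection buffer, then after 15 min with 500 uM ATP at 22 °C. NaOH stripping and re-annealing separated each of five buffer/ATP cycles, and clusters outside 100-1000 RFU were excluded. The fluorescence ratio sums target-cycle Cy3 intensity over buffer-cycle Cy3 intensity per cluster and averages it per switch-domain sequence.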
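Note: ATP exposure 15 min at 22 °C before imaging.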

## GCGGCCCGGC
  switch fluorescence ratio: 1.02

## TAACTTCTAA
  switch fluorescence ratio: 0.999

## GAATAGCTAA
  switch fluorescence ratio: 1.06

## CGAATGATTC
  switch fluorescence ratio: 1.02

## CTTGCTCCGA
  switch fluorescence ratio: 4.4

## CCTATAGCGT
  switch fluorescence ratio: 1.37

## TTGTCACGTC
  switch fluorescence ratio: 0.981

## GATTTACATC
  switch fluorescence ratio: 1.04

## CAGGCCGCTT
  switch fluorescence ratio: 0.996

## TAAACCTTCA
  switch fluorescence ratio: 2.43

## TCATCGACA
  switch fluorescence ratio: 1.01

## GGGTGACCCG
  switch fluorescence ratio: 0.959

## TATAGCCTTA
  switch fluorescence ratio: 0.997

## GAATCCCGGC
  switch fluorescence ratio: 0.99

## CGGGGTTG
  switch fluorescence ratio: 0.938

## GTAATAGAAG
  switch fluorescence ratio: 0.973

## TCTCAGAAAT
  switch fluorescence ratio: 1.22

## CAAGAAGAAA
  switch fluorescence ratio: 1.01

## AAAAATTCGA
  switch fluorescence ratio: 1.06

## GCTTTGGTGC
  switch fluorescence ratio: 0.975

## ACTGCTGGAG
  switch fluorescence ratio: 0.993

## ACGAAGCTGG
  switch fluorescence ratio: 1.48

## AGCCGGACAC
  switch fluorescence ratio: 1.07

## TAAACACGTC
  switch fluorescence ratio: 0.929

## GGAACCTATC
  switch fluorescence ratio: 1.16

## AACCCGACGG
  switch fluorescence ratio: 1.14

## TGGGAACGCT
  switch fluorescence ratio: 0.984

## CTGGATGAGA
  switch fluorescence ratio: 1.01

## GGAACAATGG
  switch fluorescence ratio: 1.03

## CCGGACCAGG
  switch fluorescence ratio: 1.79

## AAGGTGATGT
  switch fluorescence ratio: 1

## TTATGGCTGT
  switch fluorescence ratio: 0.977

## TTTAATGGT
  switch fluorescence ratio: 1.01

## ATGTGTTCGC
  switch fluorescence ratio: 1.02

## CGGAACCCCG
  switch fluorescence ratio: 1.04

## TCGGACATT
  switch fluorescence ratio: 1.1

## TCTAGTAAC
  switch fluorescence ratio: 1.03

## TTAAGGTACC
  switch fluorescence ratio: 1.07

## CGAAGGTGTG
  switch fluorescence ratio: 0.937

## GAGGGAGACG
  switch fluorescence ratio: 1.02

## ATGACATACA
  switch fluorescence ratio: 1.21

## GGTCTTTTT
  switch fluorescence ratio: 0.977

## TGCGGTATGA
  switch fluorescence ratio: 1.01

## CAAATAGTTC
  switch fluorescence ratio: 0.952

## CCAGCTGTCT
  switch fluorescence ratio: 1

## CATCGCTCAG
  switch fluorescence ratio: 1.03

## GGTTTCCTGC
  switch fluorescence ratio: 0.971

## TTTTCTAAAA
  switch fluorescence ratio: 0.978

## CCCCATCGCG
  switch fluorescence ratio: 1.06

## AAGGCTACCT
  switch fluorescence ratio: 1.07

## TATTTTTCCA
  switch fluorescence ratio: 0.988

## TGTCGGTTGC
  switch fluorescence ratio: 1.03

## TGGTTTGCGG
  switch fluorescence ratio: 0.974

## TCATTTTTAG
  switch fluorescence ratio: 1

## ACTATGCGAA
  switch fluorescence ratio: 1.13

## AGAAGCTAAC
  switch fluorescence ratio: 1.31

## TGCTGACAA
  switch fluorescence ratio: 0.965

## ATGGATCGAA
  switch fluorescence ratio: 1.01

## ATTGGTTGTC
  switch fluorescence ratio: 2.52

## CAGGGCTTTG
  switch fluorescence ratio: 0.981

## TCCACATTCA
  switch fluorescence ratio: 1.02

## GGATGAAAAA
  switch fluorescence ratio: 0.987

## GTTTGTAGGT
  switch fluorescence ratio: 0.991

## GCTGTCGGGG
  switch fluorescence ratio: 0.977

## AGTGATC
  switch fluorescence ratio: 0.982

## CGATTGTCGG
  switch fluorescence ratio: 0.97

## GTGAGGGCGG
  switch fluorescence ratio: 1.03

## ATCGAATGT
  switch fluorescence ratio: 0.961

## CAATCCCGGA
  switch fluorescence ratio: 1

## ACGGAAGCTT
  switch fluorescence ratio: 1.08

## TCGTTTAGT
  switch fluorescence ratio: 0.967

## CCAGCCTGCC
  switch fluorescence ratio: 1.47

## GACCGGGGTT
  switch fluorescence ratio: 1.06

## TCAGAAGGTT
  switch fluorescence ratio: 1.13

## CGATTGCAGC
  switch fluorescence ratio: 1.42

## ACCCAAAATA
  switch fluorescence ratio: 0.986

## GCCGAATGG
  switch fluorescence ratio: 0.987

## AATTGACCGT
  switch fluorescence ratio: 1.03

## CGTGTTGACA
  switch fluorescence ratio: 0.969

## GCGTCTGCTT
  switch fluorescence ratio: 0.989

## ATGAATCGCT
  switch fluorescence ratio: 1.02

## GAGTACCGTT
  switch fluorescence ratio: 0.975

## ACTTGTCTAG
  switch fluorescence ratio: 1.03

## AGTAAGGCAG
  switch fluorescence ratio: 1.04

## CTTGATAGGG
  switch fluorescence ratio: 1.01

## TATCAGCGTT
  switch fluorescence ratio: 0.975

## GCTTTAGCCG
  switch fluorescence ratio: 0.963

## CTATCTACAC
  switch fluorescence ratio: 1.06

## GGGATTCGG
  switch fluorescence ratio: 0.973

## TTACAGGACC
  switch fluorescence ratio: 1.01

## AAGCAGAGAA
  switch fluorescence ratio: 1.01

## AAAGTACCAG
  switch fluorescence ratio: 1.13

## AGGTGGGTGT
  switch fluorescence ratio: 0.994

## GAAACTAGG
  switch fluorescence ratio: 0.981

## CTATTGAAAC
  switch fluorescence ratio: 0.997

## TTTGTACCCC
  switch fluorescence ratio: 1.04

## TAGAAATAGA
  switch fluorescence ratio: 1.02

## ATGGCGTG
  switch fluorescence ratio: 0.978

## GAGCGGTCGG
  switch fluorescence ratio: 0.962

## TTACCCTACT
  switch fluorescence ratio: 1.25

## GGATATTGTT
  switch fluorescence ratio: 0.951

## TGCTATGTCA
  switch fluorescence ratio: 0.981

## TATCTAGTCT
  switch fluorescence ratio: 0.979

## GCCGAATTCC
  switch fluorescence ratio: 1.05

## GTTCGGAGTT
  switch fluorescence ratio: 1.03

## TCATAATCAT
  switch fluorescence ratio: 1.02

## GTAGTGTGAA
  switch fluorescence ratio: 0.988

## GGCGAGGTCT
  switch fluorescence ratio: 1.03

## CTTGGGCAAG
  switch fluorescence ratio: 1.01

## GCTTCTATGT
  switch fluorescence ratio: 1

## GCTATAATAT
  switch fluorescence ratio: 1.21

## ACGCTGATCG
  switch fluorescence ratio: 0.973

## CTGGTCTACC
  switch fluorescence ratio: 1

## TGACTTCCTG
  switch fluorescence ratio: 0.967

## ATAAACACCT
  switch fluorescence ratio: 1.47

## TCTACCGGGC
  switch fluorescence ratio: 1.09

## ATCGACAATC
  switch fluorescence ratio: 1.53

## CAACCGTTGA
  switch fluorescence ratio: 1.02

## ATTTATGATC
  switch fluorescence ratio: 1.06

## TCTGTTGTTT
  switch fluorescence ratio: 0.996

## TTATCATGT
  switch fluorescence ratio: 1.02

## CGATTGTTTG
  switch fluorescence ratio: 0.973

## TTTACAAAGC
  switch fluorescence ratio: 1.16

## GCCTGCATCC
  switch fluorescence ratio: 1.26

## AATTTTGCCC
  switch fluorescence ratio: 0.981

## GATTCAATAT
  switch fluorescence ratio: 1.09

## GGATGAGTAC
  switch fluorescence ratio: 0.865

## AAGTGATATG
  switch fluorescence ratio: 1.04

## ATATACCGGA
  switch fluorescence ratio: 1.08

## ATTCCTAGG
  switch fluorescence ratio: 1.02

## AATCTTGTTC
  switch fluorescence ratio: 1.02

## TGCGACGACC
  switch fluorescence ratio: 1.33

## ATTTCTGTAT
  switch fluorescence ratio: 1.02

## GTCGTCAGT
  switch fluorescence ratio: 0.989

## CACTTTGCCC
  switch fluorescence ratio: 1.05

## AGGTCCCTAG
  switch fluorescence ratio: 0.994

## TTTAATGCTC
  switch fluorescence ratio: 1.04

## AGAGCTGTGA
  switch fluorescence ratio: 1

## TTCGGTTCGC
  switch fluorescence ratio: 1

## GAAAATCTAT
  switch fluorescence ratio: 1.06

## GTTTCCTACT
  switch fluorescence ratio: 0.98

## GACATATGG
  switch fluorescence ratio: 0.992

## ACCCTTAGAA
  switch fluorescence ratio: 0.998

## CCATAGGAAC
  switch fluorescence ratio: 1.04

## CAATCCCAGG
  switch fluorescence ratio: 4.46

## TCCCTTCCAG
  switch fluorescence ratio: 1.05

## ACTTTAAATA
  switch fluorescence ratio: 0.995

## AACAAACTAA
  switch fluorescence ratio: 1.04

## CTGATTAAG
  switch fluorescence ratio: 1.01

## GTAGGGGGGC
  switch fluorescence ratio: 0.961

## GCTTGGCCTA
  switch fluorescence ratio: 1.02

## CTGCGTATT
  switch fluorescence ratio: 1.05

## ACCGGGGAAC
  switch fluorescence ratio: 1.06

## GACCACGAGC
  switch fluorescence ratio: 1.01

## ATCGGAAACG
  switch fluorescence ratio: 1.02

## ATGGGTTTCC
  switch fluorescence ratio: 0.994

## TGTGACGGTG
  switch fluorescence ratio: 0.988

## TCGGGTATAC
  switch fluorescence ratio: 1.27
